Where “and” joins values, the source holds several entries; their conditions need not be identical. Equal entries are not always repeated. The campaign covered roughly 290,000 compounds. About 2,100 (0.72%) were called active. Inconclusive means that the source gave no clear call. Such entries were picked first, then a sample of the others. Calls come from the whole dose curve; as a rule, active = well fitted inhibition curve with a large enough effect; inconclusive = small, poorly fitted or top-dose-only effect, or effect the other way; inactive = flat fitted curve, though single readings scatter. Where the call is inconclusive, the potency comes from a doubtful curve fit.
What follows are compounds tested against Fructose-bisphosphate aldolase (Giardia intestinalis (strain ATCC 50803 / WB clone C6)) (UniProt A8B2U2) (assay: qHTS Assay for Inhibitors of Fructose-1,6-bisphosphate Aldolase from Giardia Lamblia). Conditions: purified Giardia FBPA; activity, negative = inhibition: at 59.6 µM (top of the series) unless noted.
Sequence of UniProt A8B2U2 (A8B2U2 whole entry, looked up): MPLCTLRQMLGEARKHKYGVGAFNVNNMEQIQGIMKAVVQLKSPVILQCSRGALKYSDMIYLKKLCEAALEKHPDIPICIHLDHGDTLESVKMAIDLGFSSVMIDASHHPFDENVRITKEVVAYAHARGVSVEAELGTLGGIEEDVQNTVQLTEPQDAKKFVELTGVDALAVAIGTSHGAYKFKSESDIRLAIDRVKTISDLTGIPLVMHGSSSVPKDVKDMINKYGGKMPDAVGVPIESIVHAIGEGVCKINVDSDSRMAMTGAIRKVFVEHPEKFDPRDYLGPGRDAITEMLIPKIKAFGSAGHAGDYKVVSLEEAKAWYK
Summary of the method: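 40 nM FBPA preincubated 10 min at RT with compound (up to 57.5 uM final), then substrate plus GAPDH/TPI/NAD/arsenate coupling and diaphorase/resazurin added. Fluorescence read after 20 min at RT, 525/598 nm.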
% is set by controls: 0 for no effect and ±100 for the full control effect; potency is the fitted concentration of half-maximal effect; tags give direction and shape of the fitted curve.
Note: nearly all actives have a fitted effect of over 55% in size.

Structure (SMILES)	Potency	activity, negative = inhibition
O=C(NC1CCCC1)C(c1ccccc1)N(C(=O)c1csnn1)c1ccccc1F (centres undefined)	inactive	
CCS(=O)(=O)NCc1ccc2[nH]c3c(c2c1)CCCC3	inconclusive: 12.6 µM [inhibitor, partial curve]	
Cc1ccc(NC(=O)c2csc3c2CCCC3)cc1	inconclusive: 19.9 µM [inhibitor, partial curve]	
CCN(CC)c1ccc(/C=N/N2C(=O)c3ccccc3C2=O)c(O)c1	inactive	
N#Cc1ccc(-c2csc(NC(=O)c3ccc(S(=O)(=O)N4CCc5ccccc5C4)cc3)n2)cc1	inactive	
CC1(C)Cc2ccccc2C2=NNC(=O)C2=N1	active: 4.46 µM	
COc1cc(/C=N/n2c(-c3cc(C)[nH]n3)n[nH]c2=S)ccc1O	inconclusive: 12.6 µM [inhibitor, partial curve]	
Cc1cc(C)n(CCNC(=O)CCc2nnc(CCc3ccccc3)o2)n1	inactive	
CN(CCOc1ccccc1)CC(=O)Nc1ccc(Cl)cc1[N+](=O)[O-]	active: 22.3 µM	
C=CCNCCOc1ccc(C)cc1[N+](=O)[O-]	inconclusive: 8.89 µM [inhibitor, single point]	
COc1ccc(S(=O)(=O)N(CC(=O)Nc2ccc(S(=O)(=O)N3CCOCC3)cc2)c2ccccc2)cc1	inactive	
Cc1ccccc1Nc1nc(N2CCOCC2)nc(N2CCOCC2)n1	inconclusive: 39.8 µM [inhibitor, single point]	
O=C(O)C(Oc1ccc2c(-c3ccccc3)cc(=O)oc2c1)c1ccccc1 (centres undefined)	inconclusive: 17.7 µM [activator, single point]	
COC(=O)CCC(=O)OC1(C)C(=O)C2=CN(C3CCCC3)C(c3ccc(OC)cc3)=CC2=C(Br)C1=O (centres undefined)	inconclusive: 998 nM [inhibitor, full curve] and inconclusive: 354 nM [inhibitor, full curve]	
COC(=O)c1c(C)nc2c(c(SC)nn2-c2ccccc2)c1N		inconclusive: 33.2% [activator]
CCCOc1ccc([C@@H]2C3CN(C(=O)OCC)CC=C3C(C#N)=C(N)C2(C#N)C#N)cc1OC (some centres undefined)	inconclusive: 28.2 µM [inhibitor, partial curve, poor fit]	
Cc1ccc(OCc2n[nH]c(=S)n2-c2ccc(Cl)cc2)cc1	inconclusive: 14.1 µM [activator, partial curve]	
CCOC(=O)c1c(-c2ccc(C)cc2)csc1NC(=O)CCN1CCOCC1	inconclusive: 22.3 µM [inhibitor, partial curve]	
CC(=O)N1c2ccc(S(=O)(=O)NCC3CCC(C(=O)NCc4ccco4)CC3)cc2CC1C (centres undefined)	inactive	
CCOc1cccc(C2C(C(=O)c3ccc(C)o3)=C(O)C(=O)N2c2nccs2)c1 (centres undefined)	inconclusive: 7.92 µM [inhibitor, partial curve]	
C=CCn1c(O)c(C(C)=Nc2ccc(N(C)C)cc2)c(=O)[nH]c1=O	inconclusive: 19.9 µM [inhibitor, single point]	
CCc1cccc(C)c1NC(=O)CSc1nc2ccncc2[nH]1	inconclusive: 22.4 µM [inhibitor, single point]	
Cc1ccc(S(=O)(=O)NC(C)(C)CN2CCc3ccccc3C2)cc1	inconclusive: 25.1 µM [inhibitor, single point]	
CN(CC(=O)Nc1ccccc1Cl)C(=O)CSc1nnc(-c2ccco2)o1	inconclusive: 19.9 µM [inhibitor, single point]	
Cc1c(Br)c(O)c(Br)c2sc(=O)oc12	inconclusive: 22.3 µM [inhibitor, single point]	

Structure (SMILES)	Potency	activity, negative = inhibition
CC(=O)Nc1cccc(NC(=S)Nc2ccc(F)c(Cl)c2)c1	inconclusive: 25.1 µM [inhibitor, single point]	
COc1cccc(NC2=C(C#N)C(=O)NC(c3cccc(OC)c3O)S2)c1 (centres undefined)	active: 15.8 µM	
CCOC(=O)C1CCN(Cc2ccccn2)CC1	active: 17.8 µM	
COCCn1c(-c2ccc(Br)cc2)csc1=Nc1cccnc1	inactive	
COc1cc(CN2CCN(C(c3ccccc3)c3ccccc3)CC2)cc(OC)c1OC	inconclusive: 28.2 µM [inhibitor, single point]	
O=[N+]([O-])c1ccc(C[n+]2ccc(Cc3ccccc3)cc2)cc1	inconclusive: 1.99 µM [inhibitor, full curve]	
COc1ccc(S(=O)(=O)/N=C2\C=C(NS(=O)(=O)c3ccccc3)C(=O)c3ccccc32)cc1	inconclusive: 15.8 µM [inhibitor, partial curve]	
COc1ccc(Br)cc1CN(C)CC(=O)NCc1ccc(F)cc1	active: 14.1 µM	
COc1ccc(OC)c(-c2cc(C(=O)NCc3cccs3)no2)c1	inactive	
CCc1ccc(C(=O)Cn2ccsc2=N)cc1	inactive	
CCNC(=S)NS(=O)(=O)c1ccc(C)cc1	active: 3.54 µM	
CC(C)C(=O)Nc1cccc2nsnc12	inconclusive: 20 µM [inhibitor, partial curve]	
Oc1c(C(c2ccco2)N2CCC3(CC2)OCCO3)sc2ncnn12 (centres undefined)	inconclusive: 17.7 µM [inhibitor, partial curve]	
COc1cc(C2C(C#N)=C(N)Oc3cc(C)n(CC4CCCO4)c(=O)c32)cc2c1OCO2 (centres undefined)	inconclusive: 17.7 µM [inhibitor, single point]	
Cc1cc2c(Nc3ccc(O)cc3)ncnc2s1	inconclusive: 31.6 µM [inhibitor, single point]	
O=C(O)/C=C\C(=O)NNC(=O)c1cc(-c2ccccc2)n[nH]1	inconclusive: 17.7 µM [inhibitor, single point]	
CC(C)(C)OC(=O)NCCc1n[nH]c(=S)o1	inconclusive: 15.8 µM [inhibitor, partial curve]	
COc1cccc(/C=N/NC(=O)c2c(C)nc3ccc(Br)cn23)c1O	inactive	
COC(=O)c1c(NC(=O)/C=C/C(=O)O)sc(C)c1-c1ccc(C(C)C)cc1	inconclusive: 15.8 µM [activator, single point]	
Cc1ccc(NC(=O)CSc2ncc(S(=O)(=O)c3ccccc3)c(=O)[nH]2)cc1C	inconclusive: 9.98 µM [activator, partial curve]	
O=C(NC(=S)N1CCN(C/C=C/c2ccccc2)CC1)c1ccc(Cl)nc1	active: 7.92 µM	
Clc1ccc(OCCn2ccnc2)cc1Cl	inconclusive: 25.1 µM [inhibitor, single point]	
Cc1ccc(C(=O)Nc2ccc3c(c2)OCO3)cc1	inconclusive: 15.8 µM [inhibitor, single point]	
CC(CN1CCCCC1)OC(=O)c1ccc(Cl)cc1Cl (centres undefined)	inactive	
Cn1nnc(NC(=S)NC(=O)c2ccco2)n1	active: 1.26 µM	

Structure (SMILES)	Potency	activity, negative = inhibition
COc1cc(CNc2ccccc2SC)cc(OC)c1OC	inconclusive: 17.7 µM [inhibitor, single point]	
CC(C)(C)NC(=O)Nc1ccc2nccnc2c1	inconclusive: 7.06 µM [inhibitor, partial curve]	
CCOc1ccc(NCCC(=O)c2ccc3c(c2)OCO3)cc1	inconclusive: 15.8 µM [inhibitor, single point]	
COCCN(CC1CCCN(C2Cc3ccccc3C2)C1)C(=O)c1ccc(C(C)=O)cc1 (centres undefined)	inactive	
O=C(Nc1ccccc1)Nc1ccccc1-n1ccnc1	inactive	
COc1ccc(-c2cn(-c3cccc(C)c3)c(=O)[nH]2)cc1OC	inactive	
CC(=O)c1c(C)nn(CC(O)COc2ccc3ccccc3c2)c1C (centres undefined)	inactive	
Cc1ccc(NC(=O)CN2C(=O)N/C(=C/c3ccco3)C2=O)cc1	inactive	
COc1cc(NC(C)=O)c2ncccc2c1[N+](=O)[O-]	inconclusive: 3.54 µM [inhibitor, full curve]	
Cc1ccc(C2Nc3cccc4cccc(c34)N2)s1	inconclusive: 14.1 µM [inhibitor, partial curve]	
O=c1ccccn1CCOc1ccccc1Cl	inactive	
Cc1ccc(CNC(=O)[C@@H](NC(=O)C2CCN(C(=O)[C@@H](N)CC(C)C)CC2)C(C)C)cc1	inconclusive: 17.8 µM [inhibitor, single point]	
CN(C1=C(NC(=O)c2ccccc2)C(=O)c2ccccc2C1=O)C1CCS(=O)(=O)C1 (centres undefined)	active: 0.63 µM	
O=C(Nc1ccccc1Cl)c1ccc(-c2ccccn2)s1	inactive	
CCOc1cc(S(=O)(=O)N(CC)CC)ccc1F	inactive	
O=C(CN1CCC(Cc2ccccc2)CC1)Nc1ccc2c(c1)OCCO2	inconclusive: 17.7 µM [inhibitor, single point]	
COc1ccc(C2C(C(=O)/C=C/c3ccco3)=C(O)C(=O)N2CCN2CCOCC2)cc1 (centres undefined)	inconclusive: 6.29 µM [inhibitor, partial curve]	
CCN(CC)CCNCC(=O)Nc1ccc(Cl)cc1C(=O)c1ccccc1	inconclusive: 22.3 µM [inhibitor, partial curve]	
COc1cc2c(cc1OC)CN(S(=O)(=O)/C=C/c1ccccc1)CC2	inactive	
CCOc1c(CNCCCSc2nc(C)cc(C)n2)cccc1OC	inconclusive: 28.2 µM [inhibitor, partial curve]	
O=[N+]([O-])c1ccccc1CN1CC=C(c2ccc(F)cc2)CC1	inconclusive: 22.4 µM [inhibitor, partial curve]	
COc1ccc(CCNc2ncnc3sc(C)cc23)cc1OC	inconclusive: 10 µM [inhibitor, partial curve]	
C=CCC(NCc1ccccc1)c1ccc(OC)cc1 (centres undefined)	active: 14.1 µM	
Nn1c(Cc2ccc(Br)cc2)n[nH]c1=S	inconclusive: 15.8 µM [inhibitor, partial curve]	

Reference: PubChem BioAssay AID2451 (National Center for Advancing Translational Sciences (NCATS), 2010)
